In the supplement of paper PMC4967469:
pIC50: −log10 of the molar value. By IC50 is meant the dose at which the fit gives 50% viability; where the fit passes the top or lowest dose, that dose stands as a limit. For AUC the same curve is integrated over the 256-fold range of doses and scaled to a fraction; it is 1 without any effect and falls as sensitivity rises. For some assays here: An inferred top dose comes from the curve model; the source does not state it.

Columns and labels:
Experiment in all cases: Viability of human cancer cell lines after 72 h of drug (GDSC screen)
Obatoclax mesylate = compound: COC1=CC(c2cc3ccccc3[nH]2)=N/C1=C\c1[nH]c(C)cc1C [Obatoclax mesylate]; conditions: top dose 16 µM
Procedure: (§1)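 Human cancer cell lines in 384-well plates, medium with 10% serum, drug for 72 h over a 256-fold dose range (nine 2-fold or five 4-fold steps up to the top dose). Adherent lines were fixed and stained with the nucleic acid dye Syto60, suspension lines read with resazurin; signal relative to control wells, capped at 0 and 100%. One two-parameter sigmoid per drug and line, fitted in a mixed model over all curves with the slope shared within a line.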

CP724714 = compound: COCC(=O)NC/C=C/c1ccc2ncnc(Nc3ccc(Oc4ccc(C)nc4)c(C)c3)c2c1 [CP724714]; conditions: top dose 10.24 µM; top dose inferred
Procedure: as §1

STF-62247 = compound: Cc1cccc(Nc2nc(-c3ccncc3)cs2)c1 [STF-62247]; conditions: top dose 10.24 µM; top dose inferred
Procedure: as §1

CX-5461 = compound: Cc1cnc(CNC(=O)c2c(=O)c3ccc(N4CCCN(C)CC4)nc3n3c2sc2ccccc23)cn1 [CX-5461]; conditions: top dose 10.24 µM; top dose inferred
Procedure: as §1

Cell Line	AUC (Obatoclax mesylate)	pIC50 (Obatoclax mesylate)	AUC (CP724714)	pIC50 (CP724714)	AUC (STF-62247)	pIC50 (STF-62247)	AUC (CX-5461)	pIC50 (CX-5461)
MFE-296 (endometrium, adherent)	0.231	6.81	0.981	< 4.99	0.982	< 4.99	0.981	< 4.99
MFE-319 (endometrium, adherent)	0.252	6.70	0.979	< 4.99	0.987	< 4.99	0.989	< 4.99
MG-63 (osteosarcoma, adherent)	0.273	6.69	0.984	< 4.99	0.982	< 4.99	0.812	5.18
MHH-ES-1 (Ewing sarcoma, adherent)	0.257	6.69	0.979	< 4.99	0.986	< 4.99	0.724	5.56
MIA-PaCa-2 (pancreas, adherent)	0.312	6.55	0.971	< 4.99	0.972	< 4.99	0.985	< 4.99
MKN1 (stomach, adherent)	0.295	6.59	0.967	< 4.99	0.983	< 4.99	0.952	< 4.99
MKN28 (stomach, adherent)	0.212	6.86	0.978	< 4.99	0.971	< 4.99	0.601	5.91
MKN45 (stomach, adherent)	0.577	5.76	0.981	< 4.99	0.983	< 4.99	0.911	< 4.99
ML-1 (thyroid, adherent)	0.313	6.57	0.984	< 4.99	0.984	< 4.99	0.944	< 4.99
MOG-G-CCM (glioma, adherent)	0.245	6.80	0.951	< 4.99	0.942	< 4.99	0.811	5.18
MOG-G-UVW (glioma, adherent)	0.229	6.77	0.986	< 4.99	0.98	< 4.99	0.62	5.87
MS751 (cervix, adherent)	0.585	5.78	0.984	< 4.99	0.99	< 4.99	0.99	< 4.99
Mewo (melanoma, adherent)	0.682	5.44	0.968	< 4.99	0.972	< 4.99	0.985	< 4.99
NAMALWA (Burkitt lymphoma, suspension)	0.163	6.92	0.976	< 4.99	0.991	< 4.99	0.369	6.53
NCI-H28 (mesothelioma, adherent)	0.481	6.06	0.978	< 4.99	0.979	< 4.99	0.937	< 4.99
NCI-H196 (small cell lung carcinoma, adherent)	0.783	5.15	0.988	< 4.99	0.845	5.10	0.988	< 4.99
NCI-H292 (lung adenocarcinoma, adherent)	0.282	6.68	0.978	< 4.99	0.98	< 4.99	0.585	5.94
NCI-H358 (lung adenocarcinoma, adherent)	0.229	6.84	0.889	< 4.99	0.977	< 4.99	0.55	6.05
NCI-H441 (lung adenocarcinoma, adherent)	0.302	6.66	0.97	< 4.99	0.979	< 4.99	0.981	< 4.99
NCI-H460 (large cell lung carcinoma, adherent)	0.171	6.94	0.989	< 4.99	0.989	< 4.99	0.99	< 4.99
NCI-H520 (lung squamous cell carcinoma, adherent)	0.234	6.78	0.976	< 4.99	0.98	< 4.99	0.541	6.08
NCI-H522 (lung adenocarcinoma, adherent)	0.32	6.55	0.98	< 4.99	0.97	< 4.99	0.984	< 4.99
NCI-H596 (lung adenocarcinoma, adherent)	0.288	6.68	0.954	< 4.99	0.982	< 4.99	0.851	< 4.99
NCI-H647 (non-small cell lung carcinoma, adherent)	0.349	6.43	0.954	< 4.99	0.984	< 4.99	0.775	5.37
NCI-H661 (large cell lung carcinoma, adherent)	0.535	5.90	0.927	< 4.99	0.965	< 4.99	0.911	< 4.99
NCI-H727 (lung carcinoid, adherent)	0.196	7.19	0.954	< 4.99	0.961	< 4.99	0.972	< 4.99
NCI-H810 (large cell lung carcinoma, adherent)	0.171	6.97	0.988	< 4.99	0.968	< 4.99	0.778	5.40
NCI-H838 (lung adenocarcinoma, adherent)	0.373	6.36	0.946	< 4.99	0.981	< 4.99	0.937	< 4.99
